{"source": "PubChem BioAssay AID624417", "about": "(National Center for Advancing Translational Sciences (NCATS), 2012)", "note": "Out of some 410,000 compounds screened, about 6,400 (1.6%) were called active. Inconclusive means that the source gave no clear call. Such entries were picked first, then a sample of the others. Calls come from the whole dose curve; as a rule, active = well fitted inhibition curve with a large enough effect; inconclusive = small, poorly fitted or top-dose-only effect; inactive = no such curve, though single readings can be large or run the other way. No potency is given beside an inconclusive call; the fits are too rough. % is set by controls: 0 for no effect and ±100 for the full control effect; potency is the fitted concentration of half-maximal effect; tags give direction and shape of the fitted curve."}
{"target": "Glucagon-like peptide 1 receptor (Homo sapiens) (UniProt P43220)", "sequence (P43220 whole entry, looked up)": "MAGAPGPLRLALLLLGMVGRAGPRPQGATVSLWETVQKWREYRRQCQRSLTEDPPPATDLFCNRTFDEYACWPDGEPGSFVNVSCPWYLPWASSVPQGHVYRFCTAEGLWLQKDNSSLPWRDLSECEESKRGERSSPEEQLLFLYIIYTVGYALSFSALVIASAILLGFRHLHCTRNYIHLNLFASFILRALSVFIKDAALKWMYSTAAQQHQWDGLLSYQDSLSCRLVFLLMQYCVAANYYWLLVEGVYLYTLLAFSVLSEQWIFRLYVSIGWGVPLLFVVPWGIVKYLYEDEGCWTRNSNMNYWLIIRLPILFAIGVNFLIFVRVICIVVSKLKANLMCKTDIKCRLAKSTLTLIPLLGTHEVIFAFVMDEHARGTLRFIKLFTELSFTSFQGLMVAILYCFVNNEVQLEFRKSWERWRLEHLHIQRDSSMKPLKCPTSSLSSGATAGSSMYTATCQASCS", "assay": "qHTS of GLP-1 Receptor Inverse Agonists (Inhibition Mode); note: nearly all actives have a fitted effect of over 55% in size", "details": "HEK293 GLP-1R CRE-luciferase, luminescence, 24 h; Potency: GLP-1R form is constitutively active unless noted; activity change, negative = inhibition: at 38.3 µM (top of the series) unless noted", "method_in_brief": "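qHTS in 1536-well format: reporter HEK293 cells expressing constitutive GLP-1R activity in DMEM + 10% Nu serum, 24 hr with compounds at 37 deg C, luminescence read after 12 min with detection reagent.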"}
{"smiles": "CCCCCSc1cc(OC)c(CCNC)cc1OC", "Potency": "active: 3.98 µM [setting not given]"}
{"smiles": "CCCNC(=O)c1c(N)n(CC2CCCO2)c2nc3ccccc3nc12", "note": "(stereo unspecified)", "Potency": "inconclusive [inhibitor, single point]"}
{"smiles": "O=C(N/N=C1/CN2CCC1CC2)c1cc2ccccc2cc1O", "activity change, negative = inhibition": "inactive: 0%"}
{"smiles": "COc1cccc(CN2CCNCC2)c1", "activity change, negative = inhibition": "inactive: -3.04%"}
{"smiles": "COc1ccc(NC(=O)CN2C(=O)C(C)N=C(c3ccccc3F)c3cc(Cl)ccc32)c(OC)c1", "note": "(stereo unspecified)", "Potency": "inconclusive [inhibitor, single point]"}
{"smiles": "CN1CCN(c2ccc(S(=O)(=O)C(F)(F)F)cc2[N+](=O)[O-])CC1", "Potency": "inconclusive [inhibitor, single point]"}
{"smiles": "O=C1C2CCCN2C(c2cccnc2)N1c1ccc(Cl)cc1", "note": "(stereo unspecified)", "Potency": "inconclusive [inhibitor, single point]"}
{"smiles": "COc1ccccc1CNc1nc(NCc2ccccc2SC)c2sccc2n1", "Potency": "inconclusive [inhibitor, partial curve, poor fit]"}
{"smiles": "CC(Cc1ccccc1)NCCC(c1ccccc1)c1ccccc1", "note": "(stereo unspecified)", "Potency": "inconclusive [inhibitor, partial curve, poor fit]"}
{"smiles": "COC(=O)c1ccccc1NC(=O)c1cccn(Cc2cccc(Cl)c2)c1=O", "Potency": "inconclusive [inhibitor, single point]"}
{"smiles": "FC(F)(F)c1ccccc1CNCCc1c[nH]c2ccccc12", "Potency": "inconclusive [inhibitor, partial curve, poor fit]"}
{"smiles": "C[C@]12CC[C@H](O)C[C@H]1CC[C@@H]1[C@@H]2C[C@@H](O)[C@]2(C)[C@@H](C3=CC(=O)OC3)CC[C@]12O", "Potency": "inconclusive [inhibitor, full curve, poor fit]"}
{"smiles": "CN1CCN(c2cc(N3CCNCC3)ccc2[N+](=O)[O-])CC1", "Potency": "inconclusive [inhibitor, partial curve, poor fit]"}
{"smiles": "CC/C(=C\\C=C\\[C@@H]1C=C[C@@H]2CCC[C@H]2[C@@H]1C(=O)c1ccc[nH]1)[C@@H]1O[C@@H]([C@@H](C)C(=O)O)CC[C@@H]1C", "Potency": "active: 2.51 µM [setting not given]"}
{"smiles": "NCCc1c[nH]c2ccccc12", "activity change, negative = inhibition": "inactive: -5.63%"}
{"smiles": "O=C1N[C@@H](Cc2ccccc2)C(=O)N2[C@H]3Nc4ccccc4[C@@]3([C@]34C[C@H]5C(=O)N[C@@H](Cc6ccccc6)C(=O)N5[C@H]3Nc3ccccc34)C[C@@H]12", "Potency": "inconclusive [inhibitor, partial curve, poor fit]"}
{"smiles": "O=Cc1cn(Cc2cccc(F)c2)c2ccccc12", "Potency": "inconclusive [inhibitor, partial curve, poor fit]"}
{"smiles": "C[C@]12CC[C@@H](O)CC1=CCC1C2CC[C@@]2(C)C1C[C@@H](F)[C@H]2O", "note": "(stereo partly specified)", "Potency": "inconclusive [inhibitor, single point]"}
{"smiles": "CN1C2CCC1CC(OC(c1ccccc1)c1ccccc1N)C2", "note": "(stereo unspecified)", "Potency": "inconclusive [inhibitor, partial curve, poor fit]"}
{"smiles": "O=C(CSC1c2ccccc2-c2ccccc21)N/N=C/c1ccccc1O", "activity change, negative = inhibition": "inactive: 0%"}
{"smiles": "CCC(C)NC(=O)CCC(=O)OC1O[C@H]2OC3(C)CC[C@H]4[C@H](C)CCC(C1C)C24OO3", "note": "(stereo partly specified)", "Potency": "inconclusive [inhibitor, partial curve]"}
{"smiles": "Cc1ccc(Oc2cnn(-c3ccccc3)c(=O)c2Br)cc1", "Potency": "inconclusive [inhibitor, single point]"}
{"smiles": "CCCNC(=O)N1[C@H]2CC[C@@H]1C(C(=O)OC)=C(c1ccc(Cl)c(C(F)(F)F)c1)C2", "Potency": "inconclusive [inhibitor, single point]"}
{"smiles": "COC(=O)C1=C(c2ccccc2OCc2ccccc2)C[C@@H]2CC[C@H]1N2C", "Potency": "inconclusive [inhibitor, full curve, poor fit]"}
{"smiles": "O=C(NN1C(=O)C2C3C=CC(C4CC34)C2C1=O)c1ccc(Br)cc1", "note": "(stereo unspecified)", "Potency": "inconclusive [inhibitor, single point]"}
{"smiles": "S=C(Nc1ccccc1)Nc1ccccn1", "Potency": "inconclusive [inhibitor, single point]"}
{"smiles": "CCN1CCN(c2cc(N3CCCC3)c([N+](=O)[O-])cc2F)CC1", "Potency": "inconclusive [inhibitor, partial curve, poor fit]"}
{"smiles": "CN(CC(=O)NC(=O)NCc1ccco1)CC(=O)Nc1ccccc1Cl", "Potency": "inconclusive [inhibitor, partial curve, poor fit]"}
{"smiles": "Cc1ccc(O)c(C(=O)c2cc(C(=O)NCCC(C)C)c(=O)n(CCC(C)C)c2)c1", "Potency": "inconclusive [inhibitor, partial curve, poor fit]"}
{"smiles": "CC(C)NS(=O)(=O)c1ccc(OCC(=O)N2CCN(Cc3ccccc3)CC2)c(Cl)c1", "Potency": "inconclusive [inhibitor, single point]"}
{"smiles": "CCSC1=NN1c1cc(C)nc(N)n1", "activity change, negative = inhibition": "inactive: 40.7%"}
{"smiles": "CCCCn1c(O)c(C(C)=NCCc2c[nH]c3ccccc23)c(=O)[nH]c1=O", "Potency": "inconclusive [inhibitor, single point]"}
{"smiles": "Cc1cc2ccccn2c1C(C[N+](=O)[O-])c1c(F)cccc1Cl", "note": "(stereo unspecified)", "Potency": "inconclusive [inhibitor, single point]"}
{"smiles": "CC1(C)CSC(Nc2ccc(F)c(Cl)c2)=N1", "Potency": "inconclusive [inhibitor, single point]"}
{"smiles": "Cc1cccc(C)c1NC(=O)CN(C)CC(=O)Nc1ccc(C#N)c(Cl)c1", "Potency": "inconclusive [inhibitor, single point]"}
{"smiles": "Cc1cc(C)cc(N2C(=O)NC(=O)/C(=C\\C=C\\c3ccco3)C2=O)c1", "Potency": "inconclusive [inhibitor, single point]"}
{"smiles": "Cc1ccc(C(=O)Nc2nc3ccccc3n2CCN2CCCC2)cc1", "Potency": "inconclusive [inhibitor, single point]"}
{"smiles": "CN1C(=O)/C(=C\\c2ccc(Br)s2)C(=O)NC1=S", "activity change, negative = inhibition": "inactive: 21.5%"}
{"smiles": "CCOC(=O)C1=C(CN2CCN(c3ccc(C)cc3C)CC2)NC(=O)NC1c1ccc(OC)cc1", "note": "(stereo unspecified)", "Potency": "inconclusive [inhibitor, single point]"}
{"smiles": "CCc1ccc(CN2CCN(Cc3ccc(SC)cc3)CC2)cc1", "Potency": "inconclusive [inhibitor, partial curve, poor fit]"}
{"smiles": "CCOC(=O)c1c(NC(NC(=O)CF)C(Cl)(Cl)Cl)sc2c1CCCC2", "note": "(stereo unspecified)", "Potency": "inconclusive [inhibitor, single point]"}
{"smiles": "Cc1ccc2cc(CNCCc3ccccc3C)c(=O)[nH]c2c1", "Potency": "inconclusive [inhibitor, partial curve, poor fit]"}
{"smiles": "CN1CCc2nc(SCc3cccc(Br)c3)c(C#N)cc2C1", "Potency": "inconclusive [inhibitor, partial curve, poor fit]"}
{"smiles": "COc1ccc(C(=O)C2CCCN(C3CSCCSC3)C2)c(OC)c1", "note": "(stereo unspecified)", "Potency": "inconclusive [inhibitor, full curve, poor fit]"}
{"smiles": "Cc1ccc(-c2nc(CN3C(=O)CN=C(c4ccccc4Cl)c4cc(Cl)ccc43)c(C)o2)cc1", "Potency": "inconclusive [inhibitor, partial curve]"}
{"smiles": "CC(CN1CCOCC1)C(C#N)(c1ccccc1)c1ccccc1", "note": "(stereo unspecified)", "Potency": "inconclusive [inhibitor, single point]"}
{"smiles": "CCOP(=O)(OCC)c1nc(-c2ccc(Br)cc2)oc1N1CCCCC1", "Potency": "active: 8.91 µM"}
{"smiles": "OC(Cc1ccccc1)(c1ccccc1)C1CN2CCC1CC2", "note": "(stereo unspecified)", "Potency": "inconclusive [inhibitor, partial curve, poor fit]"}
{"smiles": "Cc1nn(CC(C)C)c(Cl)c1C(=O)NC1CCCCC1", "Potency": "inconclusive [inhibitor, single point]"}
{"smiles": "Cc1ccc(C)c(NC(=O)CSc2nnc([C@@H](N)Cc3c[nH]c4ccccc34)o2)c1", "activity change, negative = inhibition": "inactive: 7.02%"}
{"smiles": "Cc1cc(OCC(=O)N[C@H](C(=O)O)c2ccccc2)c2c3c(c(=O)oc2c1)CCC3", "activity change, negative = inhibition": "inactive: -0.0962%"}
{"smiles": "COC(=O)C1=C(c2ccc(F)cc2OCc2ccccc2)C[C@@H]2CC[C@H]1N2C(=O)NC(C)C", "Potency": "inconclusive [inhibitor, partial curve]"}
{"smiles": "Cc1cccc(NC(=O)Oc2ccc(Cl)c3cccnc23)c1", "Potency": "active: 10 µM"}
{"smiles": "CCOC(=O)[C@]12Cc3cc(OC)ccc3[C@H]1N(Cc1ccccc1)C(=O)c1ccccc12", "Potency": "inconclusive [inhibitor, partial curve, poor fit]"}
{"smiles": "Cc1cccc(N=Cc2c(O)n(C)c(=O)n(C)c2=O)c1", "activity change, negative = inhibition": "inactive: 13.1%"}
{"smiles": "CN=C1CN(O)C(c2ccccc2)c2cc(Cl)ccc2N1", "note": "(stereo unspecified)", "Potency": "inconclusive [inhibitor, partial curve, poor fit]"}
{"smiles": "N=c1n(CCO)c2ccccc2n1Cc1ccccc1", "Potency": "inconclusive [inhibitor, partial curve, poor fit]"}
{"smiles": "Cc1ccc(Sc2ccc(C=C3C(=O)N(C)C(=O)N(C)C3=O)o2)cc1", "activity change, negative = inhibition": "inactive: 5.79% [at 0.307 µM, GLP-1R form is constitutively active]"}
{"smiles": "O=C(N/N=C/c1c(O)n(C2CCCCC2)c(=S)[nH]c1=O)c1ccccc1", "activity change, negative = inhibition": "inactive: 3.24%"}
{"smiles": "C=C1[C@@H](C)[C@H]2[C@H](Cc3ccccc3)NC(=O)[C@]23OC(=O)/C=C/[C@H](O)CCC[C@@H](C)C/C=C/[C@H]3[C@@H]1O", "Potency": "inconclusive [inhibitor, partial curve, poor fit]"}
{"smiles": "CCCCCN1C(=O)c2cc(OC)ccc2[C@@]2(C(=O)OCC)Cc3cc(Cl)ccc3[C@@H]12", "Potency": "inconclusive [inhibitor, full curve, poor fit]"}
